The list shows a part of the results.
Legend:
Test in all cases: glycan array binding signal (z-score within array); higher = stronger binding
Details in all cases: glycan notation: IUPAC condensed, linker removed
[1] = molecular target: Gal(b1-3)[Neu5Ac(a2-6)]GalNAc
Method in brief: (§1)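 Glycan array data were curated from 3228 arrays in the Consortium for Functional Glycomics database and kept only where the protein sequence was available. Glycan names were converted to IUPAC-condensed notation, and columns mapping to the same glycan were averaged. The binding signal is a within-array Z-score, averaged across arrays of the same protein sequence at different concentrations or buffers and across linkers. Negative Z-scores can be read as non-binding.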

[2] = molecular target: Gal(b1-3)[Neu5Ac(a2-6)]GlcNAc
Method in brief: as §1

[3] = molecular target: Gal(b1-3)[Neu5Ac(a2-6)]GlcNAc(a1-4)Gal(b1-4)Glc
Method in brief: as §1

[4] = molecular target: Gal(b1-3)[Neu5Ac(b2-6)]GlcNAc
Method in brief: as §1

[5] = molecular target: Gal(b1-4)GalNAc(a1-3)[Fuc(a1-2)]Gal(b1-4)GlcNAc
Method in brief: as §1

[6] = molecular target: Gal(b1-4)GalNAc(b1-3)[Fuc(a1-2)]Gal(b1-4)GlcNAc
Method in brief: as §1

Gal(b1-4)Glc = molecular target: Gal(b1-4)Glc
Method in brief: as §1

Gal(b1-4)Glc6S = molecular target: Gal(b1-4)Glc6S
Method in brief: as §1

Gal(b1-4)GlcNAc = molecular target: Gal(b1-4)GlcNAc
Method in brief: as §1

[7] = molecular target: Gal(b1-4)GlcNAc(b1-2)Man(a1-3)[Gal(b1-4)GlcNAc(b1-2)Man(a1-6)]Man(b1-4)GlcNAc(b1-4)GlcNAc
Method in brief: as §1

[8] = molecular target: Gal(b1-4)GlcNAc(b1-3)Gal(b1-4)Glc
Method in brief: as §1

[9] = molecular target: Gal(b1-4)GlcNAc(b1-3)Gal(b1-4)GlcNAc
Method in brief: as §1

[10] = molecular target: Gal(b1-4)GlcNAc(b1-3)Gal(b1-4)GlcNAc(b1-3)Gal(b1-4)GlcNAc
Method in brief: as §1

[11] = molecular target: Gal(b1-4)GlcNAc(b1-3)Gal(b1-4)[Fuc(a1-3)]GlcNAc(b1-3)Gal(b1-4)[Fuc(a1-3)]GlcNAc
Method in brief: as §1

[12] = molecular target: Gal(b1-4)GlcNAc(b1-3)GalNAc
Method in brief: as §1

[13] = molecular target: Gal(b1-4)GlcNAc(b1-3)[Gal(b1-4)GlcNAc(b1-6)]GalNAc
Method in brief: as §1

[14] = molecular target: Gal(b1-4)GlcNAc(b1-6)GalNAc
Method in brief: as §1

[15] = molecular target: Gal(b1-4)GlcNAc(b1-6)[Gal(b1-3)]GalNAc
Method in brief: as §1

[16] = molecular target: Gal(b1-4)GlcNAc(b1-6)[Gal(b1-3)]GlcNAc
Method in brief: as §1

Gal3S(b1-3)GalNAc = molecular target: Gal3S(b1-3)GalNAc
Method in brief: as §1

Gal3S(b1-3)GlcNAc = molecular target: Gal3S(b1-3)GlcNAc
Method in brief: as §1

[17] = molecular target: Gal3S(b1-3)[Fuc(a1-4)]GlcNAc
Method in brief: as §1

Gal3S(b1-4)Glc = molecular target: Gal3S(b1-4)Glc
Method in brief: as §1

Gal3S(b1-4)Glc6S = molecular target: Gal3S(b1-4)Glc6S
Method in brief: as §1

Gal3S(b1-4)GlcNAc = molecular target: Gal3S(b1-4)GlcNAc
Method in brief: as §1

Gal3S(b1-4)GlcNAc6S = molecular target: Gal3S(b1-4)GlcNAc6S
Method in brief: as §1

Gal3S6S(b1-4)GlcNAc = molecular target: Gal3S6S(b1-4)GlcNAc
Method in brief: as §1

Gal3S6S(b1-4)GlcNAc6S = molecular target: Gal3S6S(b1-4)GlcNAc6S
Method in brief: as §1

Gal4S(b1-4)GlcNAc = molecular target: Gal4S(b1-4)GlcNAc
Method in brief: as §1

Gal4S6S(b1-4)GlcNAc = molecular target: Gal4S6S(b1-4)GlcNAc
Method in brief: as §1

Gal6S(b1-4)Glc = molecular target: Gal6S(b1-4)Glc
Method in brief: as §1

Gal6S(b1-4)Glc6S = molecular target: Gal6S(b1-4)Glc6S
Method in brief: as §1

Gal6S(b1-4)GlcNAc = molecular target: Gal6S(b1-4)GlcNAc
Method in brief: as §1

GalNAc(a1-3)Gal = molecular target: GalNAc(a1-3)Gal
Method in brief: as §1

GalNAc(a1-3)GalNAc = molecular target: GalNAc(a1-3)GalNAc
Method in brief: as §1

[18] = molecular target: GalNAc(b1-3)Gal(a1-4)Gal(b1-4)GlcNAc
Method in brief: as §1

GalNAc(b1-4)GlcNAc = molecular target: GalNAc(b1-4)GlcNAc
Method in brief: as §1

Glc(a1-4)Glc = molecular target: Glc(a1-4)Glc
Method in brief: as §1

Glc(a1-6)Glc(a1-6)Glc = molecular target: Glc(a1-6)Glc(a1-6)Glc
Method in brief: as §1

Glc(b1-4)Glc = molecular target: Glc(b1-4)Glc
Method in brief: as §1

Glc(b1-6)Glc = molecular target: Glc(b1-6)Glc
Method in brief: as §1

GlcA(b1-3)Gal = molecular target: GlcA(b1-3)Gal
Method in brief: as §1

GlcA(b1-6)Gal = molecular target: GlcA(b1-6)Gal
Method in brief: as §1

[19] = molecular target: GlcNAc(a1-3)Gal(b1-4)GlcNAc
Method in brief: as §1

[20] = molecular target: GlcNAc(a1-6)Gal(b1-4)GlcNAc
Method in brief: as §1

B1: Crocus Lectin (Crocus vernus), Q9FVA1 (protein)
chain: MAKSLVLSSLLLALLLAAPLASLADNNVLLTGDVLHTDNQLSFESAAFVMQGDCNLVLYNEAGGFQSNTHGRGVGCTLRLNNFGQLEIHSANSNTPVWVSLRNGIPVRGDYAAVLGPDQHVTIYGPAIWSTPAPNRHERGATVSNIPRVRNVLFSSQVMSDNAQLATRDYSLVMRDDCNLALTKGSKTNIVWESGTSGRGQHCFMRLGHTGLIEISDDRLNTVWRSNTVGQEGDYVLILQINGQAVVYGPAVWSTASPARGGASAAL
glycan array binding signal (z-score) [1]: 0.099
glycan array binding signal (z-score) [2]: -0.155
glycan array binding signal (z-score) [3]: -0.196
glycan array binding signal (z-score) [4]: -0.171
glycan array binding signal (z-score) [5]: -0.195
glycan array binding signal (z-score) [6]: -0.188
glycan array binding signal (z-score) (Gal(b1-4)Glc): -0.152
glycan array binding signal (z-score) (Gal(b1-4)Glc6S): -0.165
glycan array binding signal (z-score) (Gal(b1-4)GlcNAc): -0.147
glycan array binding signal (z-score) [7]: 0.268
glycan array binding signal (z-score) [8]: -0.19
glycan array binding signal (z-score) [9]: -0.199
glycan array binding signal (z-score) [10]: -0.063
glycan array binding signal (z-score) [11]: -0.17
glycan array binding signal (z-score) [12]: -0.189
glycan array binding signal (z-score) [13]: -0.19
glycan array binding signal (z-score) [14]: 0.012
glycan array binding signal (z-score) [15]: -0.185
glycan array binding signal (z-score) [16]: -0.196
glycan array binding signal (z-score) (Gal3S(b1-3)GalNAc): -0.167
glycan array binding signal (z-score) (Gal3S(b1-3)GlcNAc): -0.141
glycan array binding signal (z-score) [17]: -0.171
glycan array binding signal (z-score) (Gal3S(b1-4)Glc): -0.159
glycan array binding signal (z-score) (Gal3S(b1-4)Glc6S): -0.155
glycan array binding signal (z-score) (Gal3S(b1-4)GlcNAc): -0.174
glycan array binding signal (z-score) (Gal3S(b1-4)GlcNAc6S): -0.161
glycan array binding signal (z-score) (Gal3S6S(b1-4)GlcNAc): -0.151
glycan array binding signal (z-score) (Gal3S6S(b1-4)GlcNAc6S): -0.157
glycan array binding signal (z-score) (Gal4S(b1-4)GlcNAc): -0.085
glycan array binding signal (z-score) (Gal4S6S(b1-4)GlcNAc): -0.167
glycan array binding signal (z-score) (Gal6S(b1-4)Glc): -0.169
glycan array binding signal (z-score) (Gal6S(b1-4)Glc6S): -0.176
glycan array binding signal (z-score) (Gal6S(b1-4)GlcNAc): -0.106
glycan array binding signal (z-score) (GalNAc(a1-3)Gal): -0.155
glycan array binding signal (z-score) (GalNAc(a1-3)GalNAc): -0.183
glycan array binding signal (z-score) [18]: -0.173
glycan array binding signal (z-score) (GalNAc(b1-4)GlcNAc): -0.167
glycan array binding signal (z-score) (Glc(a1-4)Glc): -0.18
glycan array binding signal (z-score) (Glc(a1-6)Glc(a1-6)Glc): -0.187
glycan array binding signal (z-score) (Glc(b1-4)Glc): -0.187
glycan array binding signal (z-score) (Glc(b1-6)Glc): -0.178
glycan array binding signal (z-score) (GlcA(b1-3)Gal): -0.179
glycan array binding signal (z-score) (GlcA(b1-6)Gal): -0.134
glycan array binding signal (z-score) [19]: -0.153
glycan array binding signal (z-score) [20]: -0.196
